# The whole screen tested about 310,000 compounds, of which about 2,200 (0.71%) showed an effect of 50% or more. Effects have a minus sign here. This is one part of the list.
# Molecular target: human ether-à-go-go-related gene (hERG) potassium channel (human, UniProt Q12809)
# Assay: primary screen, population patch clamp on CHO cells stably expressing hERG
# Chain of human ether-à-go-go-related gene (hERG) potassium channel (Q12809 whole entry, looked up): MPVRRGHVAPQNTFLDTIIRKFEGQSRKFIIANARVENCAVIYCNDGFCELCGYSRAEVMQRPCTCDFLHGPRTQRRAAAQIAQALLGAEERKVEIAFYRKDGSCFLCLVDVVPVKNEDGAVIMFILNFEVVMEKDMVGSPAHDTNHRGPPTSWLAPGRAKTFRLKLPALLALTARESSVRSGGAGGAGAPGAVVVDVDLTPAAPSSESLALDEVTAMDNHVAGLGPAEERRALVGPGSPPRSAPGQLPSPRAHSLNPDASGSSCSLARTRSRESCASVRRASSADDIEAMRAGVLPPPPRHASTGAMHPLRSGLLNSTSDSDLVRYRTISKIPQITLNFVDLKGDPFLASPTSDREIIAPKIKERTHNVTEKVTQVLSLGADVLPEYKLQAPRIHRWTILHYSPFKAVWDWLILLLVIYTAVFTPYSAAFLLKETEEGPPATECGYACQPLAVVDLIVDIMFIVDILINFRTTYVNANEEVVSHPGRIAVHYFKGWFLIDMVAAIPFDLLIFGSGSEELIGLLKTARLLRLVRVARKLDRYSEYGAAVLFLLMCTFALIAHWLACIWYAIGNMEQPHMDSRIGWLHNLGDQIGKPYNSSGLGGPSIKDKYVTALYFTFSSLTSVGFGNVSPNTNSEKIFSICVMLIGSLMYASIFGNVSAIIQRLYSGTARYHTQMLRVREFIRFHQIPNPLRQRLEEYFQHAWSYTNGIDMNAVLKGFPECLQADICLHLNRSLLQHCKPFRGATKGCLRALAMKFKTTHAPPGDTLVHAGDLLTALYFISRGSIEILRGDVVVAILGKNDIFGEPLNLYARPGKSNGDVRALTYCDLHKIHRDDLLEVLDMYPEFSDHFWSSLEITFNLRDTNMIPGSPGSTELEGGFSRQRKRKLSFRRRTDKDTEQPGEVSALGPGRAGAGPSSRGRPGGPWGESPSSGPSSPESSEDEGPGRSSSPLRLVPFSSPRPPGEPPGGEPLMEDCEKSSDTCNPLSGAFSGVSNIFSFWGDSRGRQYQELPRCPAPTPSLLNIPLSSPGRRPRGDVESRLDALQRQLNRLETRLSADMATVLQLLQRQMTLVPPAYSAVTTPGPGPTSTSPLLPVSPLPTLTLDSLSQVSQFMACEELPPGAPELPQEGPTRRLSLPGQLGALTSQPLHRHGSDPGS
row,Compound,"hERG current change (%, negative = inhibition) at 1uM"
1,COc1ccc(OC(=O)c2cc3ccccc3o2)cc1,16.7%
2,Cc1ccc(NC(=O)c2ccc(NS(=O)(=O)c3ccc4[nH]c(=O)[nH]c4c3)cc2)nc1,12.4%
3,CCOC(=O)c1c(C)[nH]c(C(=O)C(C)OC(=O)c2oc3ccccc3c2COC)c1C (stereo not drawn),7.1%
4,Cc1ccc(-n2cc(CNCCCn3ccnc3C)c(-c3ccc(F)cc3)n2)cc1,6.1%
5,O=C(NC1CCCCCC1)c1ccco1,12.7%
6,CCSc1nnc(NC(=O)CSc2nnc(CNC(=O)c3ccc(OC)c(OC)c3)o2)s1,3.76%
7,CCOC(=O)c1ccccc1NC(=O)COC(=O)C(CCSC)NC(=O)COc1ccccc1 (stereo not drawn),0.0097%
8,Cc1ccc(CNC(=O)CCC2CCCN(Cc3ccc4cccc(F)c4n3)C2)o1 (stereo not drawn),-14.1%
9,CCCCCC(=O)Nc1cc(N(C)C)nc2ccccc12,-77.9%
10,CCCC(=O)Nc1nnc(S(=O)(=O)N(CC)c2ccccc2)s1,12.7%
11,Clc1ccc2c(c1)C(c1cccs1)=NNC(c1cccnc1)=N2,-9.42%
12,Cc1ccc(-n2ccc(=O)c(C(=O)O)n2)cc1,7.35%
13,COc1cc2nc(CN3CCN(C(c4ccccc4)c4ccccc4)CC3)[nH]c(=O)c2cc1OC,8.85%
14,O=C(NC(=S)NNC(=O)c1ccccc1[N+](=O)[O-])c1ccccc1,10.5%
15,CC(C)NC(=O)NC(=O)COC(=O)C1(C)CC1(Cl)Cl (stereo not drawn),-0.0575%
16,O=C(/N=C1/c2ccccc2CN1c1ccccc1)Nc1ccccc1,2.86%
17,COc1ccccc1NC(=O)CCSc1nnnn1C,11.5%
18,Cc1ccc(N2C(=O)N3[C@H](c4ccc(F)cc4)[C@@H]4C(=O)N(C5CCCCC5)C(=O)[C@@H]4[C@]3(C)C2=O)cc1,13.1%
19,O=C(CCc1nc(-c2ccccc2)no1)NCc1ccco1,4.59%

row,Compound,"hERG current change (%, negative = inhibition) at 1uM"
1,CCCOc1ccc(C(=O)N(Cc2cccs2)C2CCS(=O)(=O)C2)cc1 (stereo not drawn),9.51%
2,COc1cccc(C(=O)OCC(=O)NC(C)CCc2ccccc2)c1O (stereo not drawn),13.8%
3,COc1ccc(NC(=O)CN2C(=O)NC(C)(C3CCCCC3)C2=O)c(OC)c1 (stereo not drawn),-3.85%
4,Br.CN1CCc2cc(O)c(O)cc2C(c2ccccc2)C1 (stereo not drawn),2.53%
5,CC(C)(C)OC(=O)N1CCC(c2c(C(=O)O)cnn2-c2ccc(Cl)cc2)CC1,6.14%
6,Cc1ccsc1/C=N/NC(=O)c1ccc2nc[nH]c2c1,-0.669%
7,C/C(N)=C(/C#N)C(=O)CSc1nn(-c2ccc(Cl)cc2)c(=S)s1,13.5%
8,Cc1ccc(C)n1NC(=O)c1ccco1,14.4%
9,COC(=O)c1cc(-c2ccc(OC)c(OC)c2)on1,4.97%
10,CN1CCN(c2cc(-c3ccccc3)nc3cc(-c4ccc(F)cc4)nn23)CC1,-4.24%
11,O=C(NCc1ccc(-c2nc3ccccc3s2)cc1)c1ccco1,5.76%
12,CCCc1cc(=O)[nH]c(SC(C)C(=O)N2c3ccccc3CC2C)n1 (stereo not drawn),7.54%
13,Cc1ccc(C)c(S(=O)(=O)N2CCN(c3nc(-c4cccnc4)nc4ccccc34)CC2)c1,5.94%
14,CC(=O)NCCC(=O)Nc1cc(S(=O)(=O)N2CCCCC2)ccc1N1CCN(C)CC1,9.37%
15,CC1CCN(C(=O)C2CCN(S(=O)(=O)c3cccc4cccnc34)CC2)CC1,8.67%
16,Cc1ccccc1Nc1nc(Nc2ccccc2C)nc(SC2=NCCS2)n1,-6.09%
17,Cc1ccc(-c2csc3ncn(/N=C/N(C)C)c(=O)c23)o1,14.9%
18,Cc1cc(N2CC(C(=O)O)CC2=O)ccc1Br (stereo not drawn),12%
19,Cc1cc(Nc2ccccc2)n(CCO)n1,2.49%

row,Compound,"hERG current change (%, negative = inhibition) at 1uM"
1,COc1cc(CNCc2ccccc2Cl)ccc1OCC(=O)NC1CCCCC1,5.77%
2,CC(=O)N1CCC(C(=O)NCCOc2cccc(C)c2)CC1,13.5%
3,Cc1c(O)c(CN(C)C)cc2c1oc(=O)c1ccccc12,-1.4%
4,FC(F)(F)c1ccc(/C=N/n2c(COc3ccccc3)n[nH]c2=S)cc1,17%
5,COc1ccccc1N(C)S(=O)(=O)c1ccc(Cl)c(C(=O)OCc2c(C)noc2C)c1,13.1%
6,CCn1c(C)c(C2=CCN(S(=O)(=O)c3ccccc3)CC2)c2ccccc21,-2.92%
7,COc1cc(/C=N/NC(=O)CC2C(=O)NN=C2C)ccc1O (stereo not drawn),6.18%
8,Nc1cc(-c2ccc(Cl)cc2)nn1S(=O)(=O)c1ccc(Cl)cc1,19.2%
9,CCOC(=O)c1sc(NC(C)=O)cc1C,13.3%
10,Cc1cccc(C)c1NC(=O)C1(N(C(=O)c2ccccn2)c2ccc(O)cc2)CCCCC1,-0.183%
11,CC(=O)Nc1ccc(C(=O)COC(=O)C2CC3CCCC(C2)C3=O)cc1 (stereo not drawn),19.3%
12,Cn1nnnc1SCc1nc2ccccc2s1,7.62%
13,COc1ccc(C(=O)N/N=C/c2cccc3cccnc23)cc1,8.12%
14,COC(=O)CCCCCN1C(=O)/C(=C\c2ccncc2)SC1=S,13.2%
15,COc1ccc(CNC(=O)CCCn2nc(C)c3c(C)n(-c4ccccc4)nc3c2=O)cc1,12.3%
16,O=C(CSc1nnc(-c2ccco2)n1CC1CCCO1)c1ccc(F)cc1 (stereo not drawn),0.19%
17,CCOc1ccc(NC(=O)CN(C)C(=O)c2nc3nc(C)cc(C)n3n2)cc1OCC,16.7%
18,Cc1ccccc1NC(=O)CSc1nc(N2CCCCC2)nc(N2CCCCC2)n1,5.79%
19,COc1cccc2[nH]c3ccccc3c(=O)c12,13.5%

# From publication PMC4336329 (PLoS ONE, 2015)
